T1: GARP (CHO-K1-GARP cell line that overexpresses GARP) (UniProt Q14392 20-662, limits assumed)
T1 construct: whole, on cells; also called GARP protein
T1 sequence (looked up): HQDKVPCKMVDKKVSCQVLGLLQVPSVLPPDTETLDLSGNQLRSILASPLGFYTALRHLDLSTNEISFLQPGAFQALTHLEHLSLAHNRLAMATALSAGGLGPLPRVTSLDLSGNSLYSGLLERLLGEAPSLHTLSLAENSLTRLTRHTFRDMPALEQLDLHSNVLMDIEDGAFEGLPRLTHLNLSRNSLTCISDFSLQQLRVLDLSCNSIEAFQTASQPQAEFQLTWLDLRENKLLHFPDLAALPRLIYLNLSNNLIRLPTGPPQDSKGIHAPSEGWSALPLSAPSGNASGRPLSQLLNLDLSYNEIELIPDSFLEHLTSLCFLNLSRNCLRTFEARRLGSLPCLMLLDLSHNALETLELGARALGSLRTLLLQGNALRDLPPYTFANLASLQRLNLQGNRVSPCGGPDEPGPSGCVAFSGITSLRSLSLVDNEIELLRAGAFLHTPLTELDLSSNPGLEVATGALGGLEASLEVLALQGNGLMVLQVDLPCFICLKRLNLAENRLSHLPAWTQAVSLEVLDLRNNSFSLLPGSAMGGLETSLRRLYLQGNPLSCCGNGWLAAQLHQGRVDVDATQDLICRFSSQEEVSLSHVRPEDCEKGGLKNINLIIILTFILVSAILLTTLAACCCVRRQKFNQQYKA

B1: b212-hu-H-D2hu (bispecific antibody, human IgG1, kappa)
heavy: QVQLVQSGAEVKKPGSSVKVSCKASGYIFTSYWMHWVKQAPGQGLEWIGRIAPNSGGAHYHEKFKTKVTITADKSTSTAYMEFSSLRSEDTAVYYCARGNYGMDYWGQGTAVTVSS[letters of human IgG1 constant region omitted]GGGGSGGGGSGGGGSGGGGSEVQLVESGGGLVQPGGSLRLSCAASGRDFLTYGMGWFRQAPGKGLEFVASINWSGSMTYYADSVKGRFTISRDNAKNSVYLQMNSLRAEDTAVYICAARRGAVTYASSNEYEHWGQGTQVTVSS
light: DIQMTQSPSSLSASVGDRVTITCRASQDISNYLNWYQQKPGGAPELLIYYTSTLHSGVPSRFSGSGSGTDYTLTISSLQPEDFATYFCQQVNTLPFTFGSGTKLEIKRTVAAPSVFIFPPSDEQLKSGTASVVCLLNNFYPREAKVQWKVDNALQSGNSQESVTEQDSKDSTYSLSSTLTLSKADYEKHKVYACEVTHQGLSSPVTKSFNRGEC
B2: b301-H-D2hu (bispecific antibody, human IgG1, kappa)
heavy: QVQLQESGPGLVKPSGTLSLTCAVSGFSLTTYGVTWVRQPPGKGLEWIGLIWGDGTTDYHSTFISRLTISKDKSKNQVSLKLSSVTAADTAVYYCASYYFAMHYWGQGTLVTVSS[letters of human IgG1 constant region omitted]GGGGSGGGGSGGGGSGGGGSEVQLVESGGGLVQPGGSLRLSCAASGRDFLTYGMGWFRQAPGKGLEFVASINWSGSMTYYADSVKGRFTISRDNAKNSVYLQMNSLRAEDTAVYICAARRGAVTYASSNEYEHWGQGTQVTVSS
light: DIVMTQSPDSLAVSLGERATINCKSSQSLLNSRTQKNYLAWYQQKPGQSPKLLIYWASTRESGVPDRFSGSGSGTDFTLTISSLQAEDVAVYYCKQSYNLWTFGGGTKVEIKRTVAAPSVFIFPPSDEQLKSGTASVVCLLNNFYPREAKVQWKVDNALQSGNSQESVTEQDSKDSTYSLSSTLTLSKADYEKHKVYACEVTHQGLSSPVTKSFNRGEC
notes: also called b301-hu-H-D2hu
B3: b301-L-D2hu (bispecific antibody, human IgG1, kappa)
heavy: QVQLQESGPGLVKPSGTLSLTCAVSGFSLTTYGVTWVRQPPGKGLEWIGLIWGDGTTDYHSTFISRLTISKDKSKNQVSLKLSSVTAADTAVYYCASYYFAMHYWGQGTLVTVSS[letters of human IgG1 constant region omitted]
light: DIVMTQSPDSLAVSLGERATINCKSSQSLLNSRTQKNYLAWYQQKPGQSPKLLIYWASTRESGVPDRFSGSGSGTDFTLTISSLQAEDVAVYYCKQSYNLWTFGGGTKVEIKRTVAAPSVFIFPPSDEQLKSGTASVVCLLNNFYPREAKVQWKVDNALQSGNSQESVTEQDSKDSTYSLSSTLTLSKADYEKHKVYACEVTHQGLSSPVTKSFNRGECGGGGSGGGGSGGGGSGGGGSEVQLVESGGGLVQPGGSLRLSCAASGRDFLTYGMGWFRQAPGKGLEFVASINWSGSMTYYADSVKGRFTISRDNAKNSVYLQMNSLRAEDTAVYICAARRGAVTYASSNEYEHWGQGTQVTVSS
B4: b212-L-D2hu (bispecific antibody)
heavy: QVQLVQSGAEVKKPGSSVKVSCKASGYIFTSYWMHWVKQAPGQGLEWIGRIAPNSGGAHYHEKFKTKVTITADKSTSTAYMEFSSLRSEDTAVYYCARGNYGMDYWGQGTAVTVSS[letters of human IgG1 constant region omitted]
light: DIQMTQSPSSLSASVGDRVTITCRASQDISNYLNWYQQKPGGAPELLIYYTSTLHSGVPSRFSGSGSGTDYTLTISSLQPEDFATYFCQQVNTLPFTFGSGTKLEIKRTVAAPSVFIFPPSDEQLKSGTASVVCLLNNFYPREAKVQWKVDNALQSGNSQESVTEQDSKDSTYSLSSTLTLSKADYEKHKVYACEVTHQGLSSPVTKSFNRGECGGGGSGGGGSGGGGSGGGGSEVQLVESGGGLVQPGGSLRLSCAASGRDFLTYGMGWFRQAPGKGLEFVASINWSGSMTYYADSVKGRFTISRDNAKNSVYLQMNSLRAEDTAVYICAARRGAVTYASSNEYEHWGQGTQVTVSS
B5: b212-L-Bhu (bispecific antibody)
heavy: B4 heavy
light: DIQMTQSPSSLSASVGDRVTITCRASQDISNYLNWYQQKPGGAPELLIYYTSTLHSGVPSRFSGSGSGTDYTLTISSLQPEDFATYFCQQVNTLPFTFGSGTKLEIKRTVAAPSVFIFPPSDEQLKSGTASVVCLLNNFYPREAKVQWKVDNALQSGNSQESVTEQDSKDSTYSLSSTLTLSKADYEKHKVYACEVTHQGLSSPVTKSFNRGECGGGGSGGGGSGGGGSGGGGSQVQLVESGGGVVQPGGSLRLSCAASGFTFSSYAMRWVRQAPGKGLEWVAGINTGSEIVVYANSVRGRFTISRDNSRDTLYLQMNSLRAEDTAVYYCATGLVSAEHDGIWGQGTQVTVSS
B6: b301-H-Bhu-D2hu (bispecific antibody, human IgG1, kappa)
heavy: QVQLQESGPGLVKPSGTLSLTCAVSGFSLTTYGVTWVRQPPGKGLEWIGLIWGDGTTDYHSTFISRLTISKDKSKNQVSLKLSSVTAADTAVYYCASYYFAMHYWGQGTLVTVSS[letters of human IgG1 constant region omitted]GGGGSGGGGSGGGGSGGGGSQVQLVESGGGVVQPGGSLRLSCAASGFTFSSYAMRWVRQAPGKGLEWVAGINTGSEIVVYANSVRGRFTISRDNSRDTLYLQMNSLRAEDTAVYYCATGLVSAEHDGIWGQGTQVTVSSGGGGSGGGGSGGGGSEVQLVESGGGLVQPGGSLRLSCAASGRDFLTYGMGWFRQAPGKGLEFVASINWSGSMTYYADSVKGRFTISRDNAKNSVYLQMNSLRAEDTAVYICAARRGAVTYASSNEYEHWGQGTQVTVSS
light: B2 light
B7: b301-L-Bhu (bispecific antibody, human IgG1, kappa)
heavy: B3 heavy
light: DIVMTQSPDSLAVSLGERATINCKSSQSLLNSRTQKNYLAWYQQKPGQSPKLLIYWASTRESGVPDRFSGSGSGTDFTLTISSLQAEDVAVYYCKQSYNLWTFGGGTKVEIKRTVAAPSVFIFPPSDEQLKSGTASVVCLLNNFYPREAKVQWKVDNALQSGNSQESVTEQDSKDSTYSLSSTLTLSKADYEKHKVYACEVTHQGLSSPVTKSFNRGECGGGGSGGGGSGGGGSGGGGSQVQLVESGGGVVQPGGSLRLSCAASGFTFSSYAMRWVRQAPGKGLEWVAGINTGSEIVVYANSVRGRFTISRDNSRDTLYLQMNSLRAEDTAVYYCATGLVSAEHDGIWGQGTQVTVSS

Target: T2, GARP-TGF-β complex (293-GARP/TGFβ stably transfected cells) (UniProt Q14392 20-662; P01137 30-390)
Experiment: cell-based or functional assay

Binder | IC50(nM), TGFβ reporter gene blocking (293F-GAPR/TGFβ/αvβ6 cells with 293-SBE-Luciferase cells)
B1 | 0.38 nM
B2 | 4.2 nM
B3 | 8.4 nM

Target: T3, human PD-L1 (human, UniProt Q9NZQ7)
Experiment: cell-based or functional assay

Binder | IC50(nM), PD-1/PD-L1 NFAT-luciferase reporter (293T-hPD-L1 with Jurkat-PD1-CD3zeta-NFAT-Luc2 cells)
B1 | 8.7 nM
B2 | 11 nM
B3 | 10 nM
B4 | 8.2 nM

Target: T1, GARP (CHO-K1-GARP cell line that …)
Experiment: FACS on CHO-K1-GARP cells

Binder | EC50
B1 | 2.2 nM
B4 | 1.9 nM
B5 | 2 nM

Target: T3, human PD-L1
Experiment: FACS on MC38-hPD-L1 cells

T3 sequence (Q9NZQ7 19-290): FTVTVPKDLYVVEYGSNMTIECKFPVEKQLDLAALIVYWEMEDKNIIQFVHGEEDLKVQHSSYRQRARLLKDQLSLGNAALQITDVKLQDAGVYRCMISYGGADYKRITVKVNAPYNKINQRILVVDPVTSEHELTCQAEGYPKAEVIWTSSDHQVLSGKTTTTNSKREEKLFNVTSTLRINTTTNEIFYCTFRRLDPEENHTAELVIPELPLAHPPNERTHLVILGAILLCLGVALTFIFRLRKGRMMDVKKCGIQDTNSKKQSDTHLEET

Binder | EC50
B1 | 0.46 nM
B2 | 0.34 nM
B3 | 0.52 nM
B4 | 0.39 nM
B5 | 0.59 nM

Target: T2, GARP-TGF-β complex (293-GARP/TGFβ …)
Experiment: FACS on 293-GARP/TGFβ cells

Binder | EC50
B1 | 7.7 nM
B2 | 7.3 nM
B3 | 11 nM
B4 | 7.7 nM
B6 | 1.3 nM
B7 | 4.4 nM
B5 | 1.9 nM

Source: patent US20240383974A1 (BETTA PHARMACEUTICALS, published 2024)
